# Data from PMC4336329 (PLoS ONE, 2015).
# The campaign covered roughly 310,000 compounds. About 2,200 (0.71%) showed an effect of 50% or more. The effect is printed as a negative number. The list shows a part of the results.
# Biological target: human ether-à-go-go-related gene (hERG) potassium channel (human, UniProt Q12809)
# Test: primary screen, population patch clamp on CHO cells stably expressing hERG
# Sequence of human ether-à-go-go-related gene (hERG) potassium channel (Q12809 whole entry, looked up): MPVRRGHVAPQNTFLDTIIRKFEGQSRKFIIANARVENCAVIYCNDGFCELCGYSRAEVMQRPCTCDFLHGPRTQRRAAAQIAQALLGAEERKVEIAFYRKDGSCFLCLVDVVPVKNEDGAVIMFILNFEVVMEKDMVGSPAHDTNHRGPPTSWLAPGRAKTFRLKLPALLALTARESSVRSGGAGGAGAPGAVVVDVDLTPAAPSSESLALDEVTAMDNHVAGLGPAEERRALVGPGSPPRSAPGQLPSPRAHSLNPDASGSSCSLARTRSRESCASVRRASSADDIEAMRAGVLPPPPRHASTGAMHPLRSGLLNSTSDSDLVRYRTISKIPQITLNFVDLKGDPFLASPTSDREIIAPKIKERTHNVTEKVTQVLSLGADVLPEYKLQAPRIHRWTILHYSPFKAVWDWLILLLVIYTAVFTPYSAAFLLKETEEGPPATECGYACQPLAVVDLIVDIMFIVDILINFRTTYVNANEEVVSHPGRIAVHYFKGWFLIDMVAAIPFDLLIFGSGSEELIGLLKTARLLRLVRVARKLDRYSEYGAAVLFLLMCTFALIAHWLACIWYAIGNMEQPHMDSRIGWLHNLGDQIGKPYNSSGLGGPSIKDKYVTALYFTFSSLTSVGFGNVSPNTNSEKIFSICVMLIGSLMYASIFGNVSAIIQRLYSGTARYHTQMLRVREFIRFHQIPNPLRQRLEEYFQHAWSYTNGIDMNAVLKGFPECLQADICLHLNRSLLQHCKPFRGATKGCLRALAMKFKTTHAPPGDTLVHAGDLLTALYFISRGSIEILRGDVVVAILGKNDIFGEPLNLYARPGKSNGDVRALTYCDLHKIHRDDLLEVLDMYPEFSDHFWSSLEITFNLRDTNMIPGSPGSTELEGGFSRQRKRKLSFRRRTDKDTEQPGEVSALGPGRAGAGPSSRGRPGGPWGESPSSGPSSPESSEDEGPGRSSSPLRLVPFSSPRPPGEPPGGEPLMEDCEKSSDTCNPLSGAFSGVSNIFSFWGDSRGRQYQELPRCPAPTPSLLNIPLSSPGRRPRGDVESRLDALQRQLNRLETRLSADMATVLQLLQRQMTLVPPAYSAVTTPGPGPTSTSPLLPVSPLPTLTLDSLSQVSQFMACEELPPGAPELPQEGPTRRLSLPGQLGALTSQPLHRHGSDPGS
row,Compound,"hERG current change (%, negative = inhibition) at 1uM [%]"
1,C[C@H](NC(=O)[C@@H]1Cc2ccccc2CN1)C(=O)NC1CCCCC1,17.8
2,CC(C)CCNC(=S)Nc1ccc2nc3n(c(=O)c2c1)CCCCC3,-1.3
3,Cc1ccc(C(=O)C[n+]2cc(Br)cc(Br)c2)cc1.[Br-],8.99
4,CCN(CC)S(=O)(=O)c1ccc(N2CCOCC2)c(NS(=O)(=O)c2ccc(C)cc2)c1,8.83
5,COCCN(C(=O)CSc1nnc(-c2cccc(OC)c2)n1C)c1c(N)n(Cc2ccccc2)c(=O)[nH]c1=O,12.2
6,CC(Oc1cc2oc(=O)c3c(c2cc1Cl)CCC3)C(=O)NCc1cccnc1 (stereo not shown),5.33
7,COc1ccc(NS(=O)(=O)c2ccc(C)c(NC(=O)NC3CCCCC3)c2)cc1,-8.31
8,CCN(CC(=O)Nc1ccc(NC(C)=O)cc1)C(=O)C12CC3CC(CC(Cl)(C3)C1)C2,-4.61
9,O=S(=O)(NCC(c1ccco1)N1CCOCC1)c1ccc(Cl)cc1 (stereo not shown),3.72
10,CC(OCC(O)CNCC1COc2ccccc2O1)c1ccc(Cl)cc1 (stereo not shown),11.3
11,CCOC(=O)C1CCN(C(=O)c2ccc(Oc3cc(Cl)cc(Cl)c3)o2)CC1,7.39
12,CCC(C)N1CC(O)=C(c2nc3ccccc3[nH]2)C1=N (stereo not shown),3.5
13,CCOc1ccc(Cl)cc1CNc1nnnn1C,16.1
14,COc1ccc(CN2C(=O)C(C)=C(C)C2OC)cc1 (stereo not shown),12.1
15,COc1ccc(C(=O)CSc2nnc(CN3CCCCC3)n2-c2ccc(Cl)cc2)cc1OC,-1.14
16,O=C(O)C12CC3CC(C1)CC(n1cnc(Cl)n1)(C3)C2,15.9
17,CN(C(=O)COC(=O)c1cc(S(=O)(=O)N2CCOCC2)c(Cl)cc1Cl)C1CCS(=O)(=O)C1 (stereo not shown),6.13
18,CS(=O)(=O)c1ccccc1-c1nnc(NC(=O)Cc2ccccc2)o1,16.4
19,CCOc1cc(C(=O)Nc2ccccc2N2CCOCC2)ccc1OCC(=O)N1CCOCC1,14
20,Cc1nn(C)c(C)c1CN(C)C(=O)CCCC(=O)O,1.91
21,Cc1cccc(NC(=O)[C@H](C)NC(=O)[C@@H]2Cc3ccccc3CN2C(=O)OC(C)(C)C)c1,9.24
22,Cc1ccc(S(=O)(=O)NCCN=C(CN2CCCC2)NS(=O)(=O)c2ccc(C)cc2)cc1,-2.49

row,Compound,"hERG current change (%, negative = inhibition) at 1uM [%]"
1,O=C(CSc1nnnn1Cc1ccccc1)c1ccc(F)cc1,-2.96
2,Cc1ccc2nc(-c3ccc(N4C(=O)CC(N5CCC(C(N)=O)CC5)C4=O)cc3)sc2c1 (stereo not shown),16.7
3,COc1cc(/C=N\NC(=O)c2ccc(Cl)cc2)ccc1Oc1ccc([N+](=O)[O-])cn1,-1.96
4,CCCCNC(=O)COC(=O)c1cc(Br)ccc1Cl,8.6
5,Cc1cccc(COc2ccc(/C(O)=C3\C(=O)C(=O)N(CCN(C)C)C3c3ccncc3)cc2)c1 (stereo not shown),14.1
6,COc1ccc(NC(=O)Cc2nnc(SCC(=O)NC3CCCC3)n2C)cc1,9.4
7,COc1ccc(OC)c(-c2cc(C3CCN(C(=O)OC(C)(C)C)CC3)[nH]n2)c1,10.5
8,CCOc1cc(CNCc2ccccn2)ccc1OCC(=O)NC1CCCCC1.Cl,6.57
9,Cc1cc(C(F)(F)F)nn1Cc1ccc(C(=O)NCc2ccco2)o1,21.6
10,COc1ccccc1-c1c(-c2ccc(O)cc2O)n[nH]c1C(F)(F)F,7.7
11,Cc1ccc(NCc2ccco2)cc1C.O=C(O)C(=O)O,5.96
12,CCOC(=O)c1ccc(NC(=O)c2ccc[n+]([O-])c2)cc1,7.24
13,CC/C(=N/OC(=O)c1cccc(C)c1)C(=O)c1cccs1,4.99
14,O=C(CN1C(=O)c2ccccc2C1=O)N1CCN(c2ccccn2)CC1,13.3
15,CCC(=O)Nc1ccc(S(=O)(=O)Nc2cccc(C)c2)cc1OC,6.57
16,Cc1ccc(C(=O)NNC(=O)c2ccncc2)cc1C,14
17,CC(=O)c1cc(C(=O)Nc2ccccc2C(=O)O)oc1C,4.13
18,COC(=O)c1ccc(N2C(=O)C3CC=CC(C)C3C2=O)cc1 (stereo not shown),15.2
19,CC(=O)c1ccc(NC(=O)c2c(C)nn(-c3ccccc3)c2Cl)cc1,13
20,CC(CC(=O)NCc1ccco1)S(=O)(=O)c1ccc2c(c1)CCN2C(=O)C1CC1 (stereo not shown),11.4
21,CCOC(=O)C1=C(C)N=C2c3ccccc3C(=O)C2C1c1ccc(C)cc1 (stereo not shown),10.6
22,COc1ccc(NC(=O)C2CCCN2S(=O)(=O)c2ccc(F)cc2)cc1 (stereo not shown),-5.53

row,Compound,"hERG current change (%, negative = inhibition) at 1uM [%]"
1,O=C(NCC1CCCO1)c1cccc(Oc2c(Cl)cccc2[N+](=O)[O-])c1 (stereo not shown),11.2
2,C=CCn1c(SCc2ccc3c(c2)OCO3)nc2scc(-c3ccco3)c2c1=O,0.0433
3,COc1ccc(CC(=S)NCCc2ccccc2)cc1,13.9
4,Clc1nc(CN2CCCCC2)nc2sc3c(c12)CCCC3,7.88
5,COCCn1c(C)cc(/C=C2/SC(=O)N(CC(=O)N3CCCC3)C2=O)c1C,4.46
6,CCOP(=O)(OCC)c1nc(/C=C/c2ccccc2)oc1NCc1ccc(OC)cc1,5.31
7,COc1ccccc1NS(=O)(=O)c1c(C(=O)N2CCCC2)c(C)n(C)c1C,14.8
8,O=C(COc1ccc2c3c(c(=O)oc2c1)CCCC3)NCCN1CCOCC1,13.8
9,COc1ccccc1NC(=O)c1oc2ccc(C)cc2c1C,12.2
10,Cc1csc(C2=C(O)CN(CCc3ccccc3)C2=N)n1,9.82
11,CC(CN1CCCC1)C(=O)NN (stereo not shown),-6.67
12,COc1ccc(/C(C)=N/NC(=O)c2ccc(CSc3cccc4cccnc34)cc2)cc1OC,5.99
13,NC(=S)Nc1cccc2[nH]ncc12,8.75
14,C[C@H](NC(=O)c1nc[nH]c1C(=O)N1CC[NH2+]CC1)C(=O)OCc1ccccc1.[Cl-],18.2
15,COc1ccc(CNC(=O)C2CCN(S(=O)(=O)c3ccc4c(c3)CC(C)N4C(C)=O)CC2)cc1 (stereo not shown),18.7
16,Cc1ccc(-c2cc(C(=O)N3CCOCC3)c3ccccc3n2)cc1,-11.7
17,CCOc1cc(N2CCOCC2)c(OCC)cc1NC(=O)CSc1nccc(C)n1,1.03
18,CCC1CCCCN1CCCNC(=O)Cn1cnc2sc(C)c(S(=O)(=O)N3CCC(C)CC3)c2c1=O (stereo not shown),6.27
19,CCCc1c(C(=O)N/N=C/c2ccco2)nnn1-c1nonc1N,17.6
20,O=C(c1nc2ccccn2c1CN1CCN(c2ccccc2O)CC1)N1CCCC1,26
21,CCN(CC)CCN1C(=O)C(=O)/C(=C(/O)c2c(C)[nH]c(C(=O)OC)c2C)C1c1ccccc1OC (stereo not shown),16.7
22,c1coc(CNCCCN2CCOCC2)c1,7.99

row,Compound,"hERG current change (%, negative = inhibition) at 1uM [%]"
1,O=C(CCSc1ccccc1)Nc1nnc(-c2ccccc2)o1,8.16
2,CCOC(=O)N1CCC(NC(=O)C(NS(=O)(=O)c2ccc3c(c2)CCN3C(C)=O)C(C)C)CC1 (stereo not shown),11.4
3,N#Cc1ccc(C23CC4(C2)[C@H](CN(Cc2ccc(C(F)(F)F)cc2)[C@@H]4c2ccccc2)C3c2ccccc2)cc1 (stereo partly shown),16.9
4,COc1ccc(CCNC(=O)c2ccc(S(=O)(=O)N3CCCCC3)cc2)cc1,16.7
5,Cc1ccc(C(=O)N/C(=C\c2ccc(-c3ccccc3[N+](=O)[O-])o2)C(=O)NCCN(C)C)cc1,-29.7
6,Cc1cc(O)c(C=Nc2ccc(N3CCOCC3)cc2)c(C)c1Cl,17.8
7,COCCNC(=O)Cn1c(=O)n(CCCC(=O)NCc2ccc3c(c2)OCO3)c(=O)c2sccc21,4.57
8,N/C(=N\NS(=O)(=O)c1cc(C(F)(F)F)cc(C(F)(F)F)c1)c1ccccn1,7.78
9,CC(/C=C/c1ccco1)=N/NC(=O)Cc1cccs1,12.6
10,COc1cc(C(=O)Oc2cccc(/C=N/NC(=O)c3cccnc3)c2)cc(OC)c1OC,11.3
11,COc1ccc(C(=O)NCCc2c[nH]c3ccccc23)cc1S(=O)(=O)N1CCCCC1C (stereo not shown),0.887
12,CC(C)SC1=NC(C)(C)C=C(/C=C/c2ccc(Cl)cc2Cl)N1,13.5
13,CCCOc1ccc(N2C(=O)CC(N3CCN(c4ccc([N+](=O)[O-])cc4)CC3)C2=O)cc1 (stereo not shown),-34.8
14,COc1cc(-c2nc3ccc4ccccc4c3c3c2CCC3)cc(OC)c1OC,4.63
15,CC1(C)N=C(N)NC(Nc2ccccc2)=N1,6.92
16,C/C(=N\NC(=O)c1nn(C)c(C)c1Br)c1cccc(NC(=O)c2ccoc2C)c1,-9.83
17,CC(C1CC1)N(C(=O)c1ccccc1[N+](=O)[O-])c1ccccc1 (stereo not shown),7.75
18,Cc1ccc(CSCC(=O)N/N=C/c2sccc2C)cc1,7.32
19,Cc1ccc(Nc2nc(CSc3nnc(-c4ccc(F)cc4)n3C)cs2)cc1,0.213
